Measurements taken from ChEMBL document CHEMBL1201862, “PubChem BioAssay data set” (2004).
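Cultured in 96-well plates, cells were exposed to test compound for 48 hours across five concentrations. At the GI50, growth is halved.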 The source made the active and inactive calls. No stated cut-off is given here; in the data, active = GI50 up to about 1.1 µM and inactive = higher. Square brackets hold non-standard residues; d marks the D form. Peptide text beside a SMILES is read from it. * marks the point of attachment. X23 = COC1=CC(=O)N(C(=O)[C@@H](O*)C(C)C)[C@H]1Cc1ccccc1; Bn2Val = CC(C)[C@@H](C(=O)*)N(Cc1ccccc1)Cc1ccccc1; Phe(4-NO2) = N[CH](Cc1ccc([N+](=O)[O-])cc1)C(=O)O; NH(3,4-diMeO-benzyl) = COc1ccc(CN*)cc1OC; Phe(4-Cl) = N[CH](Cc1ccc(Cl)cc1)C(=O)O; 2Nal = N[CH](Cc1ccc2ccccc2c1)C(=O)O; X24 = Clc1c(Cl)c(Cl)c(O*)c(Cl)c1Cl; NH(4-Cl-benzyl) = Clc1ccc(CN*)cc1; NHPiperonyl = c1cc2c(cc1CN*)OCO2; NH(4-F-benzyl) = Fc1ccc(CN*)cc1; 3Pal = N[CH](Cc1cccnc1)C(=O)O; AllylGly = C=CC[CH](N)C(=O)O; NMeV = CN[C@H](C(=O)O)C(C)C; dNMeA = CN[C@H](C)C(=O)O; Cbz = O=C(OCc1ccccc1)*; Boc = CC(C)(C)OC(=O)*; Lac = C[CH](O)C(=O)O; OBn = c1ccc(CO*)cc1; Bn = c1ccc(C*)cc1; OtBu = CC(C)(C)O*

Tested on: NCI-H322M
Assay: NCI anticancer screen, dose series, 48 h

Q: For `O=C(/C=C/c1ccc(O)c(O)c1)NCCc1ccc(-c2ccccc2)cc1`, which GI50 is on record?
A: The GI50 was inactive: 14 µM.

Q: For `CCNC(C)Cc1ccccc1` (stereo not drawn), which GI50 is on record?
A: Its GI50 is inactive: > 100 µM.

Q: How did the GI50 turn out when `COC(=O)C1=C(C(=O)OC)C23CC1C1C(C(=O)OC)=C(C(=O)OC)C12C1C=CC3C2C(=O)OC(=O)C21` (stereo not drawn) was run?
A: Its GI50 is inactive: 34.4 µM.

Q: `COC(=O)C1=C(OC(=O)/C(=C/c2ccc(Cl)cc2)c2ccc(Cl)cc2)C(C(=O)OC)[C@@]2(O)[C@@H](C(=O)OC)[C@H](C)C[C@@H]1[C@@H]2C(=O)OC` (stereo partly drawn) was tested. Which GI50 did it give?
A: The GI50 was inactive: 42.3 µM.

Q: For `Clc1ccccc1C(n1ncc2ccccc21)n1ncc2ccccc21`, which GI50 is on record?
A: The GI50 was inactive: 55.1 µM.

Q: `O=C(/C=C/c1ccc(OCc2ccccc2)cc1)NCc1ccc(C(=O)NCc2ccccc2)cc1` was tested. Which GI50 did it give?
A: Its GI50 is inactive: > 100 µM.

Q: Which GI50 does the source give for `CCOC(=O)CC/C(C)=N\n1c(Cc2ccc(Cl)cc2)n[nH]c1=O` here?
A: The GI50 was inactive: > 100 µM.

Q: `Cn1c2ncccc2n2c(=O)cc(O)cc12` was tested. Which GI50 did it give?
A: The GI50 was inactive: 67.1 µM.

Q: `O=C(O)C1(Cc2ccc3c(c2)CCC3)Cc2ccccc2C1` was tested. Which GI50 did it give?
A: The GI50 was inactive: 62.7 µM.

Q: For `O=S(=O)(N/C(=N\O)Nc1ccc(Cl)cc1)c1ccccc1`, which GI50 is on record?
A: Its GI50 is inactive: 16.1 µM.

Q: For `CC(=O)NC(CS)C(=O)NC(CO)C(=O)NC(CO)C(=O)NC(Cc1c[nH]c2ccccc12)C(=O)N1CCCC1C(=O)NC(CO)C(=O)NC(Cc1c[nH]c2ccccc12)C(=O)NC(Cc1c[nH]cn1)C(=O)NC(CO)C(=O)NC(Cc1c[nH]c2ccccc12)C(=O)NCC(=O)NCC(=O)NC(CC(=O)O)C(=O)NC(CCC(N)=O)C(=O)NC(CCCCN)C(=O)NC(Cc1ccccc1)C(=O)NC(CCCNC(=N)N)C(=O)NC(CCCCN)C(N)=O` (stereo not drawn) (Ac-CSSWPSWHSWGGDQKFRK-NH2; configuration not given here), which GI50 is on record?
A: The GI50 was inactive: > 25 µM.

Q: How did the GI50 turn out when `CC(=O)NC(CCC(=O)OC(C)(C)C)C(=O)NC(CCC(=O)OC(C)(C)C)C(=O)NC(Cc1ccc([N+](=O)[O-])cc1)C(=O)NC(CCCCNC(=O)OC(C)(C)C)C(=O)NC(CCCCNC(=O)OC(C)(C)C)C(=O)NCC(=O)O` (stereo not drawn) (Ac-E(OtBu)E(OtBu)[Phe(4-NO2)]K(Boc)K(Boc)G-OH; configuration not given here) was run?
A: Its GI50 is inactive: > 100 µM.

Q: For `CC(=O)NC(Cc1ccc2ccccc2c1)C(=O)NC(Cc1ccc(Cl)cc1)C(=O)NC(Cc1cccnc1)C(=O)NC(CO)C(=O)NC(Cc1ccc(O)cc1)C(=O)NC(CCCN=C(N)N)C(=O)NC(CC(C)C)C(=O)NC(CCCN=C(N)N)C(=O)N1CCCC1C(=O)NC(C)C(N)=O` (stereo not drawn) (Ac-[2Nal][Phe(4-Cl)][3Pal]SYRLRPA-NH2; configuration not given here), which GI50 is on record?
A: The GI50 was inactive: > 100 µM.

Q: How did the GI50 turn out when `CC(C)[C@H](NC(=O)[C@H](C(C)C)N(Cc1ccccc1)Cc1ccccc1)C(=O)N(C)[C@H](C(=O)N1CCC[C@H]1C(=O)N(C)[C@H](C)C(=O)NCc1ccc2c(c1)OCO2)C(C)C` (Bn2Val-V[NMeV]P[dNMeA]-NHPiperonyl) was run?
A: The GI50 was inactive: 25.6 µM.

Q: With `COC1=CC(=O)N(C(=O)[C@@H](OC(=O)[C@@H](C)N(C)C(=O)[C@@H]2CCCN2C(=O)[C@H](C(C)C)N(C)C(=O)[C@@H](NC(=O)[C@H](C(C)C)N(Cc2ccccc2)Cc2ccccc2)C(C)C)C(C)C)[C@H]1Cc1ccccc1` (Bn2Val-V[NMeV]P[dNMeA]-X23) as the compound, how does the GI50 read?
A: Its GI50 is inactive: > 100 µM.

Q: Which GI50 does the source give for `COc1ccc(CNC(=O)[C@@H](C)N(C)C(=O)[C@@H]2CCCN2C(=O)[C@H](C(C)C)N(C)C(=O)[C@@H](NC(=O)[C@H](C(C)C)N(Cc2ccccc2)Cc2ccccc2)C(C)C)cc1OC` (Bn2Val-V[NMeV]P[dNMeA]-{NH(3,4-diMeO-benzyl)}) here?
A: The GI50 was inactive: 13.2 µM.

Q: Which GI50 does the source give for `CC(C)[C@H](NC(=O)[C@H](C(C)C)N(Cc1ccccc1)Cc1ccccc1)C(=O)N(C)[C@H](C(=O)N1CCC[C@H]1C(=O)N(C)[C@H](C)C(=O)NCc1ccc(Cl)cc1)C(C)C` (Bn2Val-V[NMeV]P[dNMeA]-{NH(4-Cl-benzyl)}) here?
A: The GI50 was inactive: 4.17 µM.

Q: For `CC(C)[C@H](NC(=O)[C@H](C(C)C)N(Cc1ccccc1)Cc1ccccc1)C(=O)N(C)[C@H](C(=O)N1CCC[C@H]1C(=O)N(C)[C@H](C)C(=O)NCc1ccc(F)cc1)C(C)C` (Bn2Val-V[NMeV]P[dNMeA]-{NH(4-F-benzyl)}), which GI50 is on record?
A: The GI50 was inactive: 4.63 µM.

Q: Which GI50 does the source give for `CC(C)(C)OC(=O)CC(NC(=O)OC(C)(C)C)C(=O)NC(Cc1ccccc1)C(N)=O` (stereo not drawn) (Boc-Asp(OtBu)-Phe-NH2; configuration not given here) here?
A: The GI50 was inactive: > 100 µM.

Q: For `C=CCC(NC(=O)C(CC(=O)OC(C)(C)C)NC(=O)OC(C)(C)C)C(=O)OC` (stereo not drawn) (Boc-Asp(OtBu)-[AllylGly]-OMe; configuration not given here), which GI50 is on record?
A: The GI50 was inactive: 97.3 µM.

Q: With `COC(=O)C(Cc1ccc([N+](=O)[O-])cc1)NC(=O)C(CC(=O)OC(C)(C)C)NC(=O)OC(C)(C)C` (stereo not drawn) (Boc-Asp(OtBu)-[Phe(4-NO2)]-OMe; configuration not given here) as the compound, how does the GI50 read?
A: The GI50 was inactive: > 100 µM.

Q: `COC(=O)C(Cc1ccccc1)NC(=O)C(CS)NC(=O)OC(C)(C)C` (stereo not drawn) (Boc-Cys-Phe-OMe; configuration not given here) was tested. Which GI50 did it give?
A: The GI50 was inactive: > 100 µM.

Q: How did the GI50 turn out when `CC(C)CC(NC(=O)C(CCC(=O)OCc1ccccc1)NC(=O)OC(C)(C)C)C(=O)NC(COCc1ccccc1)C(=O)NC(Cc1ccccc1)C(=O)Oc1c(Cl)c(Cl)c(Cl)c(Cl)c1Cl` (stereo not drawn) (Boc-E(OBn)LS(Bn)F-X24; configuration not given here) was run?
A: Its GI50 is inactive: 34.2 µM.

Q: How did the GI50 turn out when `COC(=O)C(CCCCNC(=O)OCc1ccccc1)NC(=O)C(CCC(=O)OCc1ccccc1)NC(=O)OC(C)(C)C` (stereo not drawn) (Boc-Glu(OBn)-Lys(Cbz)-OMe; configuration not given here) was run?
A: The GI50 was inactive: > 100 µM.

Q: For `COC(=O)CCC(NC(=O)OC(C)(C)C)C(=O)NC(Cc1ccc([N+](=O)[O-])cc1)C(=O)NC(CCC(=O)OC)C(=O)OC` (stereo not drawn) (Boc-Glu(OMe)-[Phe(4-NO2)]-Glu(OMe)-OMe; configuration not given here), which GI50 is on record?
A: Its GI50 is inactive: > 100 µM.

Q: How did the GI50 turn out when `COC(=O)CCC(NC(=O)OC(C)(C)C)C(=O)NC(Cc1ccc([N+](=O)[O-])cc1)C(=O)NCC(=O)OCc1ccccc1` (stereo not drawn) (Boc-Glu(OMe)-[Phe(4-NO2)]-Gly-OBn; configuration not given here) was run?
A: The GI50 was inactive: 42.8 µM.

Q: How did the GI50 turn out when `CC(NC(=O)CNC(=O)OC(C)(C)C)C(=O)NC(Cc1ccccc1)C(=O)OCc1ccccc1` (stereo not drawn) (Boc-Gly-Ala-Phe-OBn; configuration not given here) was run?
A: The GI50 was inactive: > 100 µM.

Q: Which GI50 does the source give for `CCOC(=O)C(CC(C)C)NC(=O)C(Cc1ccccc1)NC(=O)CNC(=O)OC(C)(C)C` (stereo not drawn) (Boc-Gly-Phe-Leu-OEt; configuration not given here) here?
A: The GI50 was inactive: 24.4 µM.

Q: `CC(C)CC(NC(=O)OC(C)(C)C)C(=O)N1CCCC1C(=O)OCc1ccccc1` (stereo not drawn) (Boc-Leu-Pro-OBn; configuration not given here) was tested. Which GI50 did it give?
A: Its GI50 is inactive: > 100 µM.

Q: Which GI50 does the source give for `CC(NC(=O)C(Cc1ccccc1)NC(=O)C(Cc1ccccc1)NC(=O)OC(C)(C)C)C(=O)OCc1ccccc1` (stereo not drawn) (Boc-Phe-Phe-Ala-OBn; configuration not given here) here?
A: The GI50 was inactive: > 100 µM.

Q: `CC(OC(=O)C(Cc1ccccc1)NC(=O)C(Cc1ccccc1)NC(=O)OC(C)(C)C)C(=O)OCc1ccccc1` (stereo not drawn) (Boc-Phe-Phe-[Lac]-OBn; configuration not given here) was tested. Which GI50 did it give?
A: The GI50 was inactive: > 100 µM.

Q: With `CC(C)(C)OC(=O)NC(Cc1ccccc1)C(=O)N1CCCC1C(N)=O` (stereo not drawn) (Boc-Phe-Pro-NH2; configuration not given here) as the compound, how does the GI50 read?
A: The GI50 was inactive: > 100 µM.

Q: Which GI50 does the source give for `COC(=O)C(CC(C)C)NC(=O)C(C)NC(=O)C(Cc1ccc(OCc2ccccc2)cc1)NC(=O)C(COCc1ccccc1)NC(=O)OC(C)(C)C` (stereo not drawn) (Boc-S(Bn)Y(Bn)AL-OMe; configuration not given here) here?
A: The GI50 was inactive: > 100 µM.
